From the supplement of paper PMC9174493
The other results are listed elsewhere or left out. Single values of this set are uncertain. Values with irradiation are relative to irradiated vehicle.

Tests used:
A549-Dual [1] = assay: NF-kB reporter (SEAP) activity, viability-corrected, relative to vehicle (fold change vs vehicle); higher = more activation of STING-IRF / NF-kB immune response reporter
A549-Dual [2] = assay: ISRE reporter (Lucia luciferase) activity, viability-corrected, relative to vehicle (fold change vs vehicle); higher = more activation of STING-IRF / NF-kB immune response reporter
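For NF-kB reporter (SEAP) activity, viability-corrected, relative to vehicle in this document: viability correction based on the alamar blue assay, with concentrations leaving 10% survival or less dropped.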

Row | SMILES | NF-kB reporter (A549-Dual [1]; 0.1 µM, irradiation: 8 Gy/4 fr) | NF-kB reporter (A549-Dual [1]; 0.1 µM, irradiation: none) | NF-kB reporter (A549-Dual [1]; 0.3 µM, irradiation: 8 Gy/4 fr) | NF-kB reporter (A549-Dual [1]; 0.3 µM, irradiation: none) | NF-kB reporter (A549-Dual [1]; 1 µM, irradiation: 8 Gy/4 fr) | NF-kB reporter (A549-Dual [1]; 1 µM, irradiation: none) | NF-kB reporter (A549-Dual [1]; 3 µM, irradiation: 8 Gy/4 fr) | NF-kB reporter (A549-Dual [1]; 3 µM, irradiation: none) | NF-kB reporter (A549-Dual [1]; 10 µM, irradiation: 8 Gy/4 fr) | NF-kB reporter (A549-Dual [1]; 10 µM, irradiation: none) | ISRE reporter (A549-Dual [2]; 0.1 µM, irradiation: 8 Gy/4 fr) | ISRE reporter (A549-Dual [2]; 0.1 µM, irradiation: none) | ISRE reporter (A549-Dual [2]; 0.3 µM, irradiation: 8 Gy/4 fr) | ISRE reporter (A549-Dual [2]; 0.3 µM, irradiation: none) | ISRE reporter (A549-Dual [2]; 1 µM, irradiation: 8 Gy/4 fr) | ISRE reporter (A549-Dual [2]; 1 µM, irradiation: none) | ISRE reporter (A549-Dual [2]; 3 µM, irradiation: 8 Gy/4 fr) | ISRE reporter (A549-Dual [2]; 3 µM, irradiation: none) | ISRE reporter (A549-Dual [2]; 10 µM, irradiation: 8 Gy/4 fr) | ISRE reporter (A549-Dual [2]; 10 µM, irradiation: none)
1 | CC(C)Cc1ccc(C(C)C(=O)OCc2ccccn2)cc1 (stereo not given) [Ibuprofen piconol] | 1.09 | 1 | 0.937 | 0.93 | 1.03 | 0.83 | 1.17 | 0.894 | 0.843 | 1.16 | 1.09 | 0.733 | 0.909 | 0.595 | 0.729 | 0.6 | 0.771 | 0.827 | 0.768 | 0.815
2 | Cc1cn(-c2cc(NC(=O)c3ccc(C)c(Nc4nccc(-c5cccnc5)n4)c3)cc(C(F)(F)F)c2)cn1.Cl [Nilotinib hydrochloride] | 1.18 | 1.14 | 0.917 | 1.11 | 0.855 | 1.57 | 0.845 | 1.18 | 1.58 | 1.8 | 1.04 | 1.34 | 1.05 | 1.08 | 0.878 | 1.21 | 0.924 | 0.926 | 0.778 | 2.78
3 | Cc1c(C(=O)Nc2ccc(N3CC(C)OC(C)C3)nc2)cccc1-c1ccc(OC(F)(F)F)cc1 (stereo not given) [Sonidegib (Erismodegib, NVP-LDE225)] | 1.07 | 1.05 | 1.11 | 1.02 | 1.02 | 1.22 | 0.885 | 1.22 | 0.845 | 1.19 | 1.1 | 0.997 | 0.96 | 0.974 | 1.06 | 0.992 | 0.814 | 0.862 | 0.716 | 1.06
4 | CC12C=CC(=O)C=C1CCC1C3CC(O)C(O)(C(=O)CO)C3(C)CC(O)C12F (stereo not given) [Triamcinolone] | 0.679 | 1.04 | 0.846 | 1.27 | 0.975 | 0.847 | 1.14 | 0.791 | 1.02 | 0.752 | 0.114 | 0.316 | 0.18 | 0.337 | 0.0587 | 0.326 | 0.0547 | 0.297 | 0.0583 | 0.252
5 | CC(CCC(=O)NCCS(=O)(=O)O)C1CCC2C3C(O)CC4CC(O)CCC4(C)C3CCC12C (stereo not given) [Tauroursodeoxycholic Acid (TUDCA)] | 1.04 | 1.44 | 1.18 | 1.82 | 1.4 | 0.943 | 1.39 | 1.04 | 1.29 | 1.05 | 1.07 | 0.844 | 1.02 | 1.16 | 0.927 | 0.925 | 0.98 | 1.05 | 0.842 | 0.851
6 | CC1CC2C3CC(F)C4=CC(=O)C=CC4(C)C3(F)C(O)CC2(C)C1(O)C(=O)CO (stereo not given) [Diflorasone] | 0.43 | 0.469 | 0.585 | 0.462 | 0.935 | 0.463 | 0.28 | 0.465 | 0.285 | 0.34 | 0.0395 | 0.166 | 0.0335 | 0.154 | 0.0605 | 0.129 | 0.0401 | 0.136 | 0.0335 | 0.159
7 | C=CCC1/C=C(\C)CC(C)CC(OC)C2OC(O)(C(=O)C(=O)N3CCCCC3C(=O)OC(/C(C)=C/C3CCC(O)C(OC)C3)C(C)C(O)CC1=O)C(C)CC2OC (stereo not given) [Tacrolimus (FK506)] | 1.25 | 1.28 | 1.04 | 1.53 | 1.14 | 2.02 | 1.26 | 1.48 | 1.39 | 1.48 | 1.1 | 1.29 | 1.1 | 1.31 | 1.24 | 1.59 | 1.33 | 1.32 | 1.21 | 2.24
8 | OCc1ccccc1OC1OC(CO)C(O)C(O)C1O (stereo not given) [Salicin] | 0.817 | 1.25 | 0.97 | 1.24 | 1.08 | 0.999 | 1.34 | 1.03 | 0.866 | 0.89 | 0.937 | 1.09 | 0.776 | 0.932 | 0.709 | 0.891 | 0.826 | 1.08 | 0.842 | 0.826
9 | CC(=O)OCC1OC(n2ccc(=O)[nH]c2=O)C(OC(C)=O)C1OC(C)=O (stereo not given) [uridine triacetate] | 1.16 | 0.864 | 1.06 | 0.902 | 0.785 | 0.755 | 0.787 | 1.04 | 0.8 | 0.979 | 1.04 | 0.874 | 0.959 | 0.78 | 0.908 | 0.767 | 0.857 | 0.873 | 0.887 | 0.749
10 | CCCCCOC(=O)Nc1nc(=O)n(C2OC(C)C(O)C2O)cc1F (stereo not given) [Capecitabine] | 1.13 | 1.08 | 1.46 | 1.05 | 1.18 | 1 | 1.38 | 0.883 | 1.08 | 0.88 | 1.11 | 1.06 | 1.54 | 1.06 | 1.07 | 0.986 | 1.22 | 0.818 | 0.9 | 0.838
11 | Cc1cnc(NC(=O)C2=C(O)c3ccccc3S(=O)(=O)N2C)s1 [Meloxicam] | 0.745 | 0.479 | 0.486 | 0.61 | 0.526 | 0.53 | 0.442 | 0.563 | 0.429 | 0.519 | 0.871 | 0.68 | 0.585 | 0.883 | 0.545 | 0.872 | 0.605 | 0.983 | 0.559 | 0.561
12 | CCOc1ccccc1OCCNC(C)Cc1ccc(OC)c(S(N)(=O)=O)c1 (stereo not given) [Tamsulosin] | 0.955 | 1.1 | 1.03 | 1.23 | 1.46 | 1.25 | 1.64 | 1.09 | 1.08 | 0.845 | 1.07 | 0.89 | 0.945 | 0.794 | 0.956 | 0.787 | 0.914 | 1.11 | 0.825 | 0.876
